# Some of the results follow.
# System: PfAP2-HC AP2 domain (GST-tagged)
# Assay: gcPBM binding intensity (ln(normalized median fluorescence intensity)); higher = stronger DNA binding
# How it was run: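 For binding intensity, the highest Masliner-normalised natural-log median intensity across replicate spots of either probe orientation was taken. Protein bound to the array was stained with Alexa488 anti-GST antibody and scanned at 488 nm. The protein, GST-tagged P. falciparum DNA-binding domains from E. coli at about 25 μg on average, had been applied for 1 h to an Agilent 4 × 180k array of primer-extended double-stranded 36-bp intergenic genomic probes and negative controls.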
row,Sequence,gcPBM binding intensity (ln)
1,TTTTTGTATTCTACCTTAACAATCTTAAAGATTTTT [CACACA_negctrl_site1157],9.53
2,TGATGGTTACGTTTATGTACACATTACAGTTAGTAT [XGTACX_site998],9.75
3,TTTTTTTTTTTAAAATGTACACGTAATTACATATAT [XGTACX_site752],9.77
4,ACTACATTATTGCATTGTACTTTTTTTTTTTTTTTA [XGTACX_site4605],9.78
5,TTAAAAATTATATAAGTGCATTAATATTTAGAACAA [GTGCAC_site9773],9.54
6,AAAATATATTAAGGCACACACATACATATATATATA [CACACA_site3723],10.7
7,GAGTTAATATTTAAAAGTACAAGATGAATGTAAAAA [XGTACX_site5810],9.73
8,TATATTGAATGCAAAAGTACATTTGTGTAAATTTAT [XGTACX_site7611],9.72
9,TTTTTTTTATTAGTGTGTACGCATTTATTTATACAT [XGTACX_site1599],10.1
10,TTTAAATTATGAAATTGTACATATAAAAATATTTTA [XGTACX_site4796],9
11,TATATATTATTTAAAACACACAAAAAAAAAAATTAT [CACACA_site89],9.81
12,TTAAAAATATATGAATGTACATATATTTATATATAT [XGTACX_site77],9.55
13,TACTTACCAAAATACACACACACACCCAATATATAA [CACACA_site1871],10.5
14,AATAAAATGAGATGTTGTACAGTTTTGATATATGCA [XGTACX_site3052],9.71
15,TTTAAAAATGCTACATGTACAAAATAAAATATAATA [XGTACX_site2905],9.65
16,ATATATATATATAAAAGTACATGCTTATATATATAT [XGTACX_site3786],9.66
17,AAGTTTATCACAGCCACGCACACATAATATATGTAT [CACACA_site3670],10.1
18,ATTTTTTTTATTCAATGTACTTTTTTTTATATATAT [XGTACX_site4978],9.73
19,TATATAAACATACATACACACATACAATAAGTAAAA [CACACA_site5118],10.1
20,CACCCACTAATAAACACACACATATATATATATATA [CACACA_site389],10.4
21,TACAAAATATATATGACACACATAAAAAAAAGTATA [CACACA_site1373],9.89
22,CATATAAAAATATGCACACACAGGAATACAAACATA [CACACA_site684],10.3
23,AATAAAAAACTACAATATACAAAATTATTAAATCAA [GTGCAC_negctrl_site703],9.67

row,Sequence,gcPBM binding intensity (ln)
1,AAACGTACATAATACACACACATGTATCCATATAAA [CACACA_site5173],10.2
2,ACCTAAGAACTATTTACACACATATACAAAATATAT [CACACA_site2459],9.86
3,ATTGTTCTATGATTTGTACACACTTTTTTTTAAAAT [CACACA_site2825],9.94
4,ATACAATAAAGGTGTACACATATATGATGCAAGATG [CACACA_site5897],10
5,ATATATATTTTTTAATGTACTTATATTTTTATAATA [XGTACX_site2103],9.64
6,AATTAAACTCACACCACACACAAAAAAAAAAAAAAA [CACACA_site693],10.3
7,AGCAATTGTGTTTTCACACATAAATATATTCCTCAC [CACACA_site5021],9.75
8,GGTCATATTTTTTGCACACAAAAAAAAATATAAAAT [CACACA_site3381],9.79
9,ATATATATATATATATGTACACATATATGTGTTTGT [XGTACX_site62],9.87
10,TTAATAAACCTTAGATGTACAGTTATATATAAAATA [XGTACX_site6681],9.54
11,GTATGTATGTATGTATGTACTTATGTAGTCTTAGTT [XGTACX_site1710],9.96
12,AGTGTAGGTATATAAACACACATACAGATATATAAT [CACACA_site4900],9.99
13,TAAAAAATAAAATGGACACACACGTTCAAATTTAGA [CACACA_site2083],10
14,TATTCAGGTCCAATGGTGCAATATATTTTTGTAATA [GTGCAC_site9607],9.61
15,GATTTTTTTTTTTTTTCACACACTAATAATATTATC [CACACA_site464],10.2
16,TTCAAAAAAATGTATACACACATAAGTATAATATAA [CACACA_site3758],9.83
17,TGTTTATGTATCAATTGTACAAAAAAAAAAAAAAAA [XGTACX_site1590],9.37
18,ATAAATGAAAAAAAGCGTACATATAAAAAAATATAT [XGTACX_site5063],9.98
19,ACTTACCCATTTATTACACACATAAAGGAAAATTTT [CACACA_site4873],9.88
20,TGTAAATAATATAATAGTACGCATATTTTTATTGAA [XGTACX_site284],9.71
21,CTTATGTGCATACCTACACACTTACAGATATATATA [CACACA_site5622],9.88
22,TTCAAATATTTTATTTGTACATAAAAAAGAAAGTTA [XGTACX_site8287],9.39
23,TAGGAAGAATTACTGTGTACTAAAATATTAAAAAGT [XGTACX_site4909],9.75

row,Sequence,gcPBM binding intensity (ln)
1,AATCTTCATACCAACACATGCACAAAAGAAATAAAA [TGCATGCA_site563],9.84
2,CATAAGAAAATAAAAACATGCACATAAGAAATATAC [TGCATGCA_site842],10.2
3,ATATAAATATATGGAAGTACACAAAAAAATTAAAAA [XGTACX_site8624],9.86
4,TATATTTATACATATTGTACATTTTATACTTTTACA [XGTACX_site3884],9.78
5,ATTTATAATCAGGGTTGTACACTTATAGAATTTTTA [XGTACX_site4175],9.58
6,GTCGCATTTTATACAAGTACACATGAATTATACAAC [XGTACX_site2200],9.76
7,TAAATAATATCTATCACACACGCATATATACATATA [CACACA_site2622],9.98
8,ATTATTAAAAAGATGTAAATAAATGAATATATGCTT [CACACA_negctrl_site539],9.66
9,TTCTATATATTTTAATGTACATATATGATTATTCTT [XGTACX_site8294],9.84
10,TATTAAGAATTTACATGTACTTGTTAAATAAGAAAA [XGTACX_site4466],9.34
11,ATATAGTATAATAAAAGTACATTTTGATTTTTTCTC [XGTACX_site1797],9.61
12,TTAAAAAAAAGACACACACACATACACATATTTATA [CACACA_site7535],11.2
13,TATATATATATATATACACACATATATATAAATATA [CACACA_site2035],9.75
14,CACAAAAGTAAGCACGCACACACAACCTGAAATAAA [CACACA_site166],10.3
15,ATATTATATAAATATACACACATTGTTTTATAGCAT [CACACA_site2386],10
16,AAAAAAAAATACATATGTACATATACATATATATAT [XGTACX_site2975],9.82
17,ATATATTTAATTTATGGTACACATAATTTTTTTAGA [XGTACX_site848],9.44
18,AAAATCCACATTTTAGTACACACTTAAAAAATTATT [CACACA_site2955],9.64
19,GAACATACTCAAATAGCACACACATAAATAAAAATG [CACACA_site9283],10.1
20,TTATATATATATATATGTACGAAAAAGAAAAAAAAG [XGTACX_site6761],9.66
21,TATATATATATAATATGTACATATAATCAACATTTT [XGTACX_site3915],9.69
22,TTAGTCATATATATATGTACACACATATATATATTT [XGTACX_site2948],9.89
23,AAAAGAAAATAAGAAACACACAAAAATATGTAAAAA [CACACA_site7694],10.2

row,Sequence,gcPBM binding intensity (ln)
1,ATTTTTATATAATGAACACACATATTATATCATTTA [CACACA_site1572],9.71
2,CCATAGATATTTTATACACACATATAACATATTAAT [CACACA_site6312],9.76
3,ATATTGACAAATATTACACACATATATAAATATGTA [CACACA_site7835],9.69
4,ATTTATTTTAATATATGTACATATATTTTTTTATTA [XGTACX_site3389],9.8
5,ATATAATATTACACAAGTACAAAAATTAATACTAAA [XGTACX_site482],9.82
6,ACCCATGATTGTTACAGTACTCTACTTTCTAATATA [XGTACX_site98],9.78
7,AAACTGTCGCTCATAAAGAAGAATGAAATACATTAA [TGCATGCA_negctrl_site60],9.45
8,ATATATGCATATTATACACACATATGTATATACATT [CACACA_site965],9.97
9,TTTTCTGTATATTGTGTGCACACAATTAACAAAAAA [GTGCAC_site9817],9.9
10,AAAAAAAAAAAAAATGCACACAATGGCTAGCTGTAC [CACACA_site2273],9.83
11,TGGAGGTCAGTTCACAGTACCCAGGAAATCTACGGA [XGTACX_site1995],9.37
12,ATAAAATATAAAAAAAGTACAAAAAAAAAAAAAAAA [XGTACX_site6657],9.11
13,CGTTATTATCCACATACACACAGGAATAAAAAATTA [CACACA_site2883],10.1
14,TAGTAATATATATTTTGTACATAAAATAATATATAA [XGTACX_site7971],9.59
15,ATTTGAAATGCATGAACACACACAGCTATAAATGCA [CACACA_site8229],9.82
16,TATATATGTTAAAACGTGCACATATATATATATATA [GTGCAC_site9589],9.49
17,TATATATATATATATATTGAAATTTATAATAATATT [TGCATGCA_negctrl_site407],9.24
18,AACATAGAAACGTTATGTACATATTGAAGGATATTA [XGTACX_site6015],9.92
19,AAATATTTATACTATACACACCCAATTTAAAAAAAA [CACACA_site6669],10.2
20,GAAATAATTTCATATACACACATATACATACATACA [CACACA_site1358],9.95

# Source: the supplement of paper PMC11417369
